# Experimental data as given in article PMC12136788.
# The list shows a part of the results.
# B1: chr5:138643207:138643208:+_ENSG00000015479_ENST00000510056|hu_mus|motif|central (ssRNA)
# RNA: GGGAGUUCUACAGUCCGACGAUCCAUCCUUCCAAGAGAUGCUGGCAUACUUAAAGACUGGGUAGCAGCAGCAAGAAGGCCGGUUCCUGCUGCAGACAGGUCACGCCCAUGACCCUGUGAAUCCCUACCGAGAGAUGACUGCUGCAACAGAGGAUUGAGCAUCA
# B2: chr4:144460044:144460045:+_ENSG00000153147_ENST00000283131|hu_mus|motif|central (ssRNA)
# RNA: GGGAGUUCUACAGUCCGACGAUCACGGUCCAUAGCCUGAAGAUCAACUUGCGGAUUCCAAUCUGAGUCAUAUAAAAUGACGGCAUCAGCAGUUGCAAGAUUGAUGCCCAGACCACCAGCACGUGUGCUUAGCAUAAAUACAAACAACAGAGGAUUGAGCAUCA
# B3: chr1:74670475:74670476:+_ENSG00000254685_ENST00000370898|hu_hu|FALSE|FALSE (ssRNA)
# RNA: GGGAGUUCUACAGUCCGACGAUCGUCCUGUUGACAAAAAUUUCCAGGUCUACACACAGCAUUAAACUGAUACAUCUUUUCUAUGCUGGGCUUAUGAAGGAAACGAUGGCAAGACCUGUAUUCAAGGUCUCUAUGUUUUAAAUCCAACAGAGGAUUGAGCAUCA
# B4: chr3:167437968:167437969:-_ENSG00000114209_ENST00000497056|hu_mus|FALSE|FALSE (ssRNA)
# RNA: GGGAGUUCUACAGUCCGACGAUCUUCAUCUCUUCCAUUGUCAUCCUCAUUCAAAAGCCAACUACAGUAGAAAAAGCAAUGCUAAAAUGCAGAGGAAUCUUCAUUCACUGCCGAAUUUCUUCCCUUUUUUAUGUGUAUGUGAUACAACAGAGGAUUGAGCAUCA
# B5: chr11:33163239:33163240:-_ENSG00000176102_ENST00000323959|hu_hu|FALSE|FALSE (ssRNA)
# RNA: GGGAGUUCUACAGUCCGACGAUCUCUGCCAGAACUGGGGAACUGGGCAACAAGGCGUUCAUAAGUCUUCCGUGCUUUGUCUAUAGGUUGAUUCUGUGCCUCUCGAAUGAGAAUGCUCCAAGCAUCAAGGUCAUAUGGAUUCUCCAACAGAGGAUUGAGCAUCA
# B6: 153236936_153237056_1815_3pUTR_ENSMUSG00000061411_ENSMUST00000109784|mouse|control|control (ssRNA)
# RNA: GGGAGUUCUACAGUCCGACGAUCUAAGGGGAGAGAAAGGGUCCACUUUUGCUCUUCUCAAUAAAUAUGCAAUUCUGCUCACCUAAGACUUGAAAGGUAAUUAUGGGGGGGGGGAGUUCUAACAUCGUGGUCCACAAAGGUGAUCAACAGAGGAUUGAGCAUCA
# B7: chr9:19447105:19447106:+_ENSMUSG00000057551_ENSMUST00000079042|mus_mus|motif|central (ssRNA)
# RNA: GGGAGUUCUACAGUCCGACGAUCUAGGUGUGAGAUGAGGCGGGGUUUGCCAACCUGAUAACCCAGUGAACUUAGAUUGCGGUAAUUCUCCAGCAUUACAUCUUUGUACAGUUUUCUCUGGGAAGAAUCUAGCAGGGGCCACUCCAACAGAGGAUUGAGCAUCA
# B8: chr7:151048522:151048523:+_ENSG00000013374_ENST00000566856|hu_mus|hu_hu_hu_mus_True|1_48 (ssRNA)
# RNA: GGGAGUUCUACAGUCCGACGAUCCUGUUUCUUAUUUAUUACGAUCUUGAUGUAAUUUUCUUGAAAUCCGAAAGUUUCAGCUAUUUGGGACCUCAGUUCUCUACCAGUGACAUGCAAGCGGGUCUCCAACAAGCUUUUCCUAUCCAACAGAGGAUUGAGCAUCA
# B9: chr2:198351390:198351391:-_ENSG00000144381_ENST00000345042|hu_hu|hu_hu_hu_mus_False|48_58 (ssRNA)
# RNA: GGGAGUUCUACAGUCCGACGAUCUCAUUCCCACCCUCCACAGAAAGGCUGCUUCUGAACUCUCAUGUGGUGACACAGCACUAAAAUCCUGAUUUUAACAGAACAGUAGAGAUGCCUCAGUGAUUUAAGUUGAAAGCAGGACACCAACAGAGGAUUGAGCAUCA
# B10: chr4:144391305:144391306:+_ENSG00000109458_ENST00000262995|hu_hu|FALSE|FALSE (ssRNA)
# RNA: GGGAGUUCUACAGUCCGACGAUCGGCACUAUGGUGUCAAAAGACAGAAUUUCAUAGAGUAAUAAAUCUGAAUUACUAUCUAAUUAAAAAUCACAGUAUGUUGCUGUAACUAACAGUGAAUGUCAACUGCUUUAUUAAUUCCAACAACAGAGGAUUGAGCAUCA
# B11: chr19:42637464:42637465:+_ENSMUSG00000025184_ENSMUST00000026188|mus_mus|FALSE|FALSE (ssRNA)
# RNA: GGGAGUUCUACAGUCCGACGAUCAGUCUGAACUUCCCAACAGUCCAUGUCCUUUGGUUUAAAAAGUCUUUGUAAAGGUAUACUAGAUACAAUCCCAGCGUCGGGAGCUCUGUGUUGAUGUUCUUGGGAUGAGGCUUCUGUGGACAACAGAGGAUUGAGCAUCA
# B12: chr1:60041781:60041782:+_ENSMUSG00000041040_ENSMUST00000036540|mus_hu|mus_mus_mus_hu_False|58_108 (ssRNA)
# RNA: GGGAGUUCUACAGUCCGACGAUCAAGAGGAGUGAAUUAAAGUAAAUGCAGUAGUGGCAAAUUUUCUUUUAUUUUCCUUCCUAAAAGAAAAUCUUUAUAACCCAGUCCUAGUCUUGGACAUAGUGAAAGCUAUAAAUUCUGACUCAACAGAGGAUUGAGCAUCA
# B13: chr12:39756943:39756944:-_ENSG00000139116_ENST00000544797|hu_mus|hu_hu_hu_mus_False|38_98 (ssRNA)
# RNA: GGGAGUUCUACAGUCCGACGAUCGGUUUGGCUGUUACCCCCGAGGGAAUCCUGCAAGAGUCUUGUCAGCUUAGAGUCUCUGUAAGGGACAUGGGUGGCCCUCUUGCUCUUGUCCCCCAAGGCGCUGAUUACAUUCCCAAGAGCCAACAGAGGAUUGAGCAUCA
# B14: chr1:149898447:149898448:-_ENSG00000143368_ENST00000271628|hu_hu|FALSE|FALSE (ssRNA)
# RNA: GGGAGUUCUACAGUCCGACGAUCAAGUCGUUCGGCUGCUGAGCCAUGGCGCUCACCCUUGGAGUCCUUCUUGAAGGCAUAAGAUACGGUGAUAGGACGGUUACAGAGGUACUGCCCAUUCAUGGCUUCAAUUGCUGCAUCCGACAACAGAGGAUUGAGCAUCA
# B15: 43796116_43796236_697_CDS_ENSG00000152242_ENST00000321319|human|control|control (ssRNA)
# RNA: GGGAGUUCUACAGUCCGACGAUCUCCUGAAGGGUCUCCUUCUACCGCCGUUUCUGCCUGAGAGGGUUCAUUCUCUUCUGCGGAAGACAACGUAUCUGAAUCAGCCAGGUGACCACUAGAGGAAGGGGAAAGCAUGCAGUGAUUCAACAGAGGAUUGAGCAUCA
# B16: 11210982_11213420_465_CDS_ENSG00000130164_ENST00000252444|human|control|control (ssRNA)
# RNA: GGGAGUUCUACAGUCCGACGAUCCAUCGCACCUCCAGAACUGAGGAAUGCAGCGGUUGACACGGCCCCCACAGCUGAAGUCCCCGGAUUUGCAGGUGACAGACAAGCACGUCUCCUGGGACUCAUCAGAGCCAUCCUGGCACUCAACAGAGGAUUGAGCAUCA
# B17: chr5:80946147:80946148:-_ENSG00000145687_ENST00000505980|hu_mus|motif|central (ssRNA)
# RNA: GGGAGUUCUACAGUCCGACGAUCUGUCUGAGCCGAUUUCUGAGCUCCUACAUGGAGCAGAUAUUCAUACACGUAGAGUGCGGACUUCUCCCGGGCCUGGCUGUCGGACGGGACGGCGCUGCUGUUACUCUUGCCUUUGCCGUACAACAGAGGAUUGAGCAUCA
# B18: chr1:214815296:214815297:+_ENSG00000117724_ENST00000366955|hu_hu|motif|central (ssRNA)
# RNA: GGGAGUUCUACAGUCCGACGAUCAAGUUUUAAUUCCUUAUUUCUUAGCAUAGCUUCUAAUUGCACCAACUGCGCAUUAUAACGGUCGGGAGAAAUUUCUUUAACUUCAAGAUCCAUCUGAGGUUUAAAAUUACAUUGAUUUCUCAACAGAGGAUUGAGCAUCA
# B19: chr14:96998876:96998877:+_ENSG00000090060_ENST00000216277|hu_hu|motif|central (ssRNA)
# RNA: GGGAGUUCUACAGUCCGACGAUCAUAAAGCUGGCAAGUUCUUGCUACUAGCAUAGCCCAGGAAACACCACCGAGGAAACCGGAUAUAUUGGAAUAGAUGUUGUGGCGUUUGGCCCAUAGUUUGAUAGCUCUCAGAGUUAACCUCAACAGAGGAUUGAGCAUCA
# B20: chr6:48548902:48548903:+_ENSMUSG00000052751_ENSMUST00000163452|mus_hu|FALSE|FALSE (ssRNA)
# RNA: GGGAGUUCUACAGUCCGACGAUCAGAGAACAGAACAAGGCCCAAUAGGUAGAAAUUAUAGGAAAGCAGAAUUCAUUCAUUAUAAGGAAGGAUUUCUAACAAUUAGAAUUUCUAACAAUUAGAAUCAUCCAGGGCCUCAGGAGGCAACAGAGGAUUGAGCAUCA
# B21: chr5:110834802:110834803:-_ENSG00000164211_ENST00000296632|hu_mus|FALSE|FALSE (ssRNA)
# RNA: GGGAGUUCUACAGUCCGACGAUCCCACCAACCAACCAAACGAAGGAAAGGGAAACACGUAAGACCAGUGAGGAGCAGAAACAGCAACCCACACGGAAAUGGCAUGCACCACUGAGCGCUGCGUGUUCACACAAACACAAAAUGCAACAGAGGAUUGAGCAUCA
# B22: chr22:41363808:41363809:+_ENSG00000100387_ENST00000216225|hu_mus|FALSE|FALSE (ssRNA)
# RNA: GGGAGUUCUACAGUCCGACGAUCGUCCAACGGACACACCUGCCUCGUUUUGAGCCAUCGAGAGAUGCAGUGGAAAUGAAAAGCAUGGUUGCAGACUCCCCAUGCAACCGUACACUCUUCGGAAGUAGCUGACGCCUGGUUGGCCAACAGAGGAUUGAGCAUCA
# Target: T1, UNK ZnF1-3 (human, UniProt Q9C0B0 31-174)
# T1 sequence: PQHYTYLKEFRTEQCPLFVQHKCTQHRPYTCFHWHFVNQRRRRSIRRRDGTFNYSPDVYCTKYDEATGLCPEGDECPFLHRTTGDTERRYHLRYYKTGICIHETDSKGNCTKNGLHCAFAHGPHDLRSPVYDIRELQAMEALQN
# Assay: nsRBNS (natural sequence RNA bind-n-seq); RBNS binding buffer (assumed for nsRBNS): 25 mM Tris pH 7.5, 150 mM KCl, 3 mM MgCl2, 0.01% Triton X-100, 500 ug/ml BSA, 20 U/ml SUPERase-In, 4 C; UNK is unkempt and MSI1 is Musashi-1; names of the RNAs are library labels; protein concentration not given here; high values mean tight binding
row,Binder,binding signal
1,B1,0.808 enrichment R
2,B2,1.05 enrichment R
3,B3,1.21 enrichment R
4,B4,1.35 enrichment R
5,B5,0.635 enrichment R
6,B6,1.31 enrichment R
7,B7,1.09 enrichment R
8,B8,0.619 enrichment R
9,B9,1.24 enrichment R
10,B10,0.504 enrichment R
11,B11,1 enrichment R
12,B12,0.747 enrichment R
13,B13,0.736 enrichment R
14,B14,0.815 enrichment R
15,B15,0.987 enrichment R
16,B16,0.9 enrichment R
17,B17,0.614 enrichment R
18,B18,0.862 enrichment R
19,B19,1.15 enrichment R
20,B20,1.6 enrichment R
21,B21,1.54 enrichment R
22,B22,1.24 enrichment R
